SMILES strings stand for the structures. The whole screen tested about 39,000 compounds, of which about 220 (0.56%) showed activity. The list shows a part of the results.
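Also: static incubation at 37 °C against the wild-type strain, values averaged over two biological replicates.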

The subject of this assay is Escherichia coli K-12 BW25113. Briefly: relative growth (OD600 normalised to plate interquartile mean) (fraction); higher = less growth inhibition, active = 0.2 or less. The following applies: 50 µM; LB; incubation time: overnight (16-24 h).
Regarding `N#CC1C(=O)NC(=O)N=C1Nc1ccccc1` (stereo unspecified), the relative growth was inactive: 0.981. With `C[C@@H]1CN([C@H](C)CO)C(=O)Cc2cc(NS(=O)(=O)c3ccc(F)cc3)ccc2O[C@H]1CN(C)CC1CC1` the figure was inactive: 1.03.

Turning to `C[C@H](CO)N1C[C@H](C)[C@H](CN(C)S(=O)(=O)c2cn(C)cn2)Oc2c(NC(=O)Nc3ccc(F)cc3)cccc2C1=O`, the relative growth was inactive: 1.01. For `N#CCSc1ncnc2c1cnn2CCO` the value was inactive: 1; for `C[C@H]1CCCCO[C@@H](CN(C)C)[C@@H](C)CN([C@@H](C)CO)C(=O)c2cc(NS(=O)(=O)c3cn(C)cn3)ccc2O1`, inactive: 1; for `CNC[C@H]1OCCCC[C@@H](C)Oc2ccc(NS(=O)(=O)c3cn(C)cn3)cc2C(=O)N([C@H](C)CO)C[C@H]1C`, inactive: 1.02. For `CC(C)NC(=O)N(C)C[C@H]1Oc2ccc(NC(=O)NC3CCCCC3)cc2C(=O)N([C@@H](C)CO)C[C@@H]1C` the value was inactive: 0.967; for `CC(C)NC(=O)Nc1ccc2c(c1)CC(=O)N([C@@H](C)CO)C[C@@H](C)[C@H](CN(C)Cc1ccc(C(=O)O)cc1)O2`, inactive: 0.997. With `CCCN(C)C[C@@H]1OCCCC[C@H](C)Oc2ccc(NC(=O)Nc3ccc(C(F)(F)F)cc3)cc2C(=O)N([C@H](C)CO)C[C@@H]1C` the figure was inactive: 0.97; with `O=C(C[C@H]1CC[C@H]2[C@@H](COC[C@@H](O)CN2CC2CCOCC2)O1)N1CCOCC1`, inactive: 0.941. In the case of `CCC(=O)N[C@H]1C=C[C@@H](CC(=O)OC)O[C@@H]1CO`, the relative growth is inactive: 0.989. For `O=C(O)CCC(=O)N[C@H]1CCCCNC1=O` the value was inactive: 1. For `C[C@@H]1CN([C@@H](C)CO)C(=O)c2cc(-c3cccc(C#N)c3)cnc2O[C@H]1CN(C)C(=O)C1CCOCC1` the value was inactive: 1.01. With `CN(C)CC(=O)N[C@H]1CC[C@H](CCn2cc(CN(C)C)nn2)O[C@@H]1CO`, the relative growth is inactive: 0.984. With `C[C@@H]1CN([C@@H](C)CO)C(=O)Cc2cc(NC(=O)Cc3cn(C)c4ccccc34)ccc2O[C@@H]1CN(C)C` the figure was inactive: 1.01. Consider `C[C@H]1CN([C@@H](C)CO)C(=O)c2cc(NS(C)(=O)=O)ccc2O[C@H]1CN(C)Cc1ccc(C(F)(F)F)cc1`, for which the relative growth is inactive: 0.986. As for `C[C@H]1CN([C@@H](C)CO)S(=O)(=O)c2ccc(-c3ccc(C#N)cc3)cc2O[C@H]1CN(C)C(=O)CN(C)C`, the relative growth was inactive: 0.969.

`C[C@H](CO)N1C[C@H](C)[C@@H](CN(C)C(=O)Nc2ccc3c(c2)OCO3)OCCCC[C@H](C)Oc2ccc(NC(=O)Nc3ccc(C(F)(F)F)cc3)cc2C1=O`: the relative growth is inactive: 0.995.

Consider `O=C(C[C@H]1CC[C@@H]2[C@H](COC[C@H](O)CN2C(=O)Nc2ccc(Cl)cc2)O1)NCCc1ccncc1`, for which the relative growth was inactive: 1. Regarding `COc1cc(O)c(C(=O)c2ccccc2)cc1S(=O)(=O)O`, the relative growth is inactive: 1.06.

On to `Cc1ccc(S(=O)(=O)Nc2ccc3c(c2)C(=O)N([C@@H](C)CO)C[C@@H](C)[C@@H](CN(C)Cc2ccc4c(c2)OCO4)OCCCC[C@H](C)O3)cc1`, for which the relative growth is inactive: 0.986. For `COc1ncnc2nc[nH]c12` the value was inactive: 0.932.

On to `CO/N=C(\C(=O)N[C@@H]1C(=O)N2C(C(=O)O)=C(C[N+]3(C)CCCC3)CS[C@H]12)c1csc(N)n1`, for which the relative growth is active: 0.0339. For the molecule `CO[C@H]1CN(C)C(=O)c2ccc(NS(C)(=O)=O)cc2OC[C@@H](C)N(C(=O)c2ccc3c(c2)OCO3)C[C@@H]1C`, the relative growth was inactive: 1. For `CS(=O)(=O)N1CCN2C[C@H](C(=O)O)CN(Cc3ccoc3)C[C@@H]2C1` the value was inactive: 1.02. `C[C@@H]1CCCCO[C@H](CN(C)S(=O)(=O)c2ccccc2)[C@@H](C)CN([C@@H](C)CO)C(=O)c2cc(NC(=O)NC3CCCCC3)ccc2O1`: the relative growth is inactive: 1. On to `C[C@@H]1CCCCO[C@H](CN(C)C(=O)Nc2ccc(F)cc2)[C@H](C)CN([C@@H](C)CO)C(=O)c2cc(NS(=O)(=O)c3ccc(F)cc3)ccc2O1`, for which the relative growth is inactive: 1.01. With `COc1ccc(NC(=O)Nc2ccc3c(c2)CC(=O)N([C@@H](C)CO)C[C@@H](C)[C@@H](CN(C)Cc2ccc(C(=O)Nc4ccccc4N)cc2)O3)cc1` the figure was inactive: 0.986; with `C[C@H](CO)N1C[C@H](C)[C@H](CN(C)C(=O)NC2CCCCC2)Oc2ccc(NC(=O)CCN3CCOCC3)cc2CC1=O`, inactive: 0.983; with `COc1cc(CO)cc(I)c1O[C@H]1C=C(C(=O)NCCO)C[C@@H](NC2CCCCCC2)[C@@H]1O`, inactive: 0.908. For `C[C@H]1CC/C=C\[C@H]2O[C@@]34C=CCN(Cn5nnc6ccccc65)C(=O)[C@H]3N(CCCO)C(=O)[C@@H]4[C@@H]2C(=O)O1` the value was inactive: 0.979; for `C[C@@H]1CN([C@H](C)CO)C(=O)Cc2cc(NC(=O)CCCN(C)C)ccc2O[C@@H]1CN(C)Cc1ccc(Oc2ccccc2)cc1`, inactive: 1.03.

As to `COc1ccc2c3c(n(c2c1)C)[C@@H](CO)N(Cc1cc(cc(c1)OC)OC)C[C@]13CN(C1)C(=O)CN1CCOCC1`, the relative growth is inactive: 1. Take `C[C@H]1CN([C@@H](C)CO)C(=O)c2cc(NS(C)(=O)=O)ccc2O[C@@H]1CN(C)S(=O)(=O)c1cccs1`: the relative growth was inactive: 1.01. `O=C(O)CCc1nnc2ccc(Cl)nn12`: the relative growth was inactive: 0.923. Turning to `Cn1cnc(CCNC(=O)C[C@@H]2CC[C@H]3[C@@H](COC[C@@H](O)CN3C(=O)C3CC3)O2)c1`, the relative growth is inactive: 1.01. For `COc1ccc(CN(C)C[C@H]2Oc3ccc(NC(=O)CCN4CCOCC4)cc3CC(=O)N([C@@H](C)CO)C[C@@H]2C)cc1` the value was inactive: 1.01; for `CCCNC(=O)Nc1ccc2c(c1)C(=O)N(C)C[C@H](OC)[C@H](C)CN(C(=O)C1CCOCC1)[C@H](C)CO2`, inactive: 0.957. With `COc1ccc(S(=O)(=O)N(C)C[C@H]2OCCCC[C@H](C)Oc3ccc(NC(=O)Nc4cccc5ccccc45)cc3C(=O)N([C@H](C)CO)C[C@@H]2C)cc1` the figure was inactive: 1.02. With `C[C@H](CO)N1C[C@H](C)[C@H](CN(C)C(=O)Nc2ccc(C(F)(F)F)cc2)Oc2ncc(-c3ccc(C#N)cc3)cc2C1=O`, the relative growth is inactive: 1.01.

Take `C[C@@H]1CN([C@@H](C)CO)C(=O)Cc2cc(NC(=O)Cc3cn(C)c4ccccc34)ccc2O[C@H]1CN(C)CC1CCCCC1`: the relative growth is inactive: 0.994. For `COc1ccc(NC(=O)N(C)C[C@@H]2Oc3ccc(NC(=O)Nc4cccc5ccccc45)cc3C(=O)N([C@H](C)CO)C[C@@H]2C)cc1` the value was inactive: 0.982; for `C[C@@H]1CN([C@@H](C)CO)S(=O)(=O)c2ccc(-c3ccccc3F)cc2O[C@@H]1CN(C)S(C)(=O)=O`, inactive: 1.01; for `O=C(Nc1ccc(-c2nc3ccc(NC(=O)c4ccccc4[N+](=O)[O-])cc3[nH]2)cc1)c1ccccc1[N+](=O)[O-]`, inactive: 1.03. For `CC(C)NC(=O)NCC[C@@H]1CC[C@@H](NC(=O)CN(C)C)[C@@H](CO)O1` the value was inactive: 1.02; for `C[C@@H]1CCCCO[C@@H](CN(C)S(=O)(=O)c2ccc(F)cc2)[C@H](C)CN([C@@H](C)CO)C(=O)c2cc(NS(=O)(=O)c3cn(C)cn3)ccc2O1`, inactive: 1.01; for `C[C@H]1CN([C@@H](C)CO)S(=O)(=O)c2ccc(C#CC3(O)CCCC3)cc2O[C@H]1CN(C)C(=O)Cc1ccccc1`, inactive: 1.01.

On to `Cc1ccc(S(=O)(=O)Nc2ccc3c(c2)CC(=O)N([C@H](C)CO)C[C@H](C)[C@H](CN(C)S(=O)(=O)c2ccccc2)O3)cc1`, for which the relative growth is inactive: 0.998. For `COc1ccc(CN(C)C[C@H]2OCCCC[C@H](C)Oc3ccc(NC(=O)Nc4ccc(C(F)(F)F)cc4)cc3C(=O)N([C@@H](C)CO)C[C@@H]2C)cc1` the value was inactive: 0.977; for `C[C@@H]1CN([C@H](C)CO)C(=O)c2cc(NC(=O)Cn3cnnn3)ccc2O[C@H]1CN(C)C(=O)Nc1ccccc1`, inactive: 0.985.

As for `O=c1[nH]c(=O)n(C2CC(O)C(CO)O2)cc1F` (stereo unspecified), the relative growth is active: 0.0526. With `CC(=O)N[C@@H](CCCNC(=N)N)C(=O)N[C@H]1CSSC[C@@H](C(N)=O)NC(=O)[C@H](Cc2c[nH]c3ccccc23)NC(=O)[C@H](CCCNC(=N)N)NC(=O)[C@@H](Cc2ccccc2)NC(=O)[C@H](Cc2cnc[nH]2)NC(=O)[C@@H](C)NC1=O` the figure was inactive: 1.01; with `CC(=O)N(C)C[C@H]1Oc2ncc(C#C[C@H](C)O)cc2C(=O)N([C@H](C)CO)C[C@H]1C`, inactive: 0.976; with `C[C@H](CO)N1C[C@H](C)[C@H](CN(C)CC2CCCCC2)Oc2ccc(NC(=O)Cc3cn(C)c4ccccc34)cc2C1=O`, inactive: 0.988. With `COc1ccccc1C#Cc1cnc2c(c1)C(=O)N([C@@H](C)CO)C[C@@H](C)[C@H](CN(C)S(=O)(=O)c1cn(C)cn1)O2` the figure was inactive: 1.02; with `O=C(C[C@@H]1CC[C@@H]2[C@H](COC[C@H](O)CN2C(=O)Nc2cc(Cl)cc(Cl)c2)O1)N1CCOCC1`, inactive: 0.972; with `COc1ccc(C#Cc2ccc3c(c2)O[C@H](CN(C)C(=O)c2ccccn2)[C@@H](C)CN([C@@H](C)CO)S3(=O)=O)cc1`, inactive: 1.02. With `CCCNC(=O)Nc1ccc2c(c1)C(=O)N(C)C[C@@H](OC)[C@H](C)CN(Cc1ccc(-c3ccccn3)cc1)[C@H](C)CO2` the figure was inactive: 0.996; with `CCS(=O)(=O)Nc1ccc2c(c1)C(=O)N(C)[C@@H]1CC[C@@H](CC(=O)NCc3ccc(OC)cc3)O[C@H]1CO2`, inactive: 0.994. As for `CCOc1ccc(C(=O)Nc2ccc(N3CCN(C(=O)c4cccs4)CC3)c(Cl)c2)cc1Br`, the relative growth was inactive: 1. As to `COc1ccc(NC(=O)N(C)C[C@H]2OCc3ccccc3-c3c(n(C)c4ccccc34)C(=O)N([C@@H](C)CO)C[C@H]2C)cc1`, the relative growth is inactive: 1.01.

The record behind these values is the supplement of paper PMC9446081.
